{"source": "the supplement of paper PMC11417369", "note": "± gives the standard deviation of the averaged measurements. The list shows a part of the results.", "data": [{"test_system": "PfAP2-EXP AP2 domain (GST-tagged)", "assay": "gcPBM binding intensity (ln(normalized median fluorescence intensity)); higher = stronger DNA binding", "outline": "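An Agilent 4 × 180k array of primer-extended double-stranded 36-bp intergenic genomic probes, with negative controls, was incubated for 1 h with GST-tagged P. falciparum DNA-binding domains expressed in E. coli. Alexa488 anti-GST antibody detected bound protein, scanned at 488 nm. Binding intensity is the highest Masliner-normalised natural-log median intensity across replicate spots of either probe orientation.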", "values": [{"sequence": "TATAAAACACACACACATATATATATATATTTATAT [TGCATGCA_negctrl_site48]", "gcPBM binding intensity (ln)": "8.65 ± 0.54"}, {"sequence": "ATTTACAAAAATTTTGTATAAAGGGATTTTAAAATG [TGCATGCA_negctrl_site350]", "gcPBM binding intensity (ln)": "8.8 ± 0.81"}, {"sequence": "GACAACGTTTCAATGTGTACATATTTATAATATATA [XGTACX_site2427]", "gcPBM binding intensity (ln)": "8.54 ± 0.31"}, {"sequence": "TTTTTTTTTTCTCCTGCATGCAGCATTTATATATTA [TGCATGCA_site390]", "gcPBM binding intensity (ln)": "10.3 ± 0.13"}, {"sequence": "TATATATATATATATACATGCATTTTTGTTTGCTTA [TGCATGCA_site256]", "gcPBM binding intensity (ln)": "10.1 ± 0.29"}, {"sequence": "TATATATATATATGTACACACATCAATCATATTAAC [CACACA_site1946]", "gcPBM binding intensity (ln)": "10.2 ± 0.18"}, {"sequence": "ATTGAAAAACCGTTTAGTACATATCATCACGTTTGT [XGTACX_site1295]", "gcPBM binding intensity (ln)": "8.43 ± 0.35"}, {"sequence": "TAAAATAAAATAAGTAGTACATATATAATTATATAT [XGTACX_site6733]", "gcPBM binding intensity (ln)": "8.46 ± 0.3"}, {"sequence": "AAAATACGAATATAAACATGCACCATATAGAACAAA [TGCATGCA_site925]", "gcPBM binding intensity (ln)": "9.38 ± 0.028"}, {"sequence": "TTTTTTTTTTTTTTTACACACTGCATACAAGAAAAA [CACACA_site5642]", "gcPBM binding intensity (ln)": "8.46 ± 0.54"}, {"sequence": "TTTTTACAAAAAAAAAAAAAAAAAATAAAAATAAAT [CACACA_negctrl_site1738]", "gcPBM binding intensity (ln)": "8.05 ± 0.69"}, {"sequence": "TACAAATATAGATGCACACACATATACATACCTATA [CACACA_site7094]", "gcPBM binding intensity (ln)": "8.64 ± 0.28"}, {"sequence": "AAAACAAACAAAAAAAAAAAAAAAAATATCAATCTA [TGCATGCA_negctrl_site203]", "gcPBM binding intensity (ln)": "7.89 ± 0.5"}, {"sequence": "TGAACATCATTTTTATGTACACACACATATACGTTG [XGTACX_site3864]", "gcPBM binding intensity (ln)": "8.7 ± 0.34"}, {"sequence": "GACGTGGAAAAAAAAACACACACAAAAAAAAAAAAA [CACACA_site9324]", "gcPBM binding intensity (ln)": "8.22 ± 0.46"}, {"sequence": "ATATATCATGCCAAGGGTACAAATGTGTAGTTGAAA [XGTACX_site2820]", "gcPBM binding intensity (ln)": "8.88 ± 0.33"}, {"sequence": "TTTTTTAAATATTATTTTTATGAGTAAATATATTAT [GTGCAC_negctrl_site277]", "gcPBM binding intensity (ln)": "8.06 ± 0.48"}, {"sequence": "GTACAAAATTGACAAGTGCAAAAATTAAAAGCAAGA [GTGCAC_site9838]", "gcPBM binding intensity (ln)": "9.15 ± 0.25"}, {"sequence": "AAAGTATATAGGATACGTACATACATAAATAAATAA [XGTACX_site8216]", "gcPBM binding intensity (ln)": "8.84 ± 0.4"}, {"sequence": "TATAAAAATAAGCACACACACAAATATAGATTTATT [CACACA_site6558]", "gcPBM binding intensity (ln)": "8.57 ± 0.45"}, {"sequence": "GTGTGAGCACATTCGGGAGAGTTTTTTTTTTTTTTT [CACACA_negctrl_site1776]", "gcPBM binding intensity (ln)": "8.48 ± 0.23"}, {"sequence": "ATATATATATAAATATGTACATATATTTATTTCTTT [XGTACX_site3784]", "gcPBM binding intensity (ln)": "9.55 ± 0.2"}, {"sequence": "TATATTCAAAATGGTACACACAATATTTAATTGTGC [CACACA_site2631]", "gcPBM binding intensity (ln)": "8.35 ± 0.43"}, {"sequence": "ACATTTTCTTATAAATGTACATATATATTATTATAT [XGTACX_site4404]", "gcPBM binding intensity (ln)": "8.43 ± 0.29"}, {"sequence": "TGACATATAAAATATTCACACACAAGTTATAGTTCT [CACACA_site9209]", "gcPBM binding intensity (ln)": "8.23 ± 0.49"}, {"sequence": "TTAATAGAAATACGTGCACACTAAAGGGAAAACAAT [CACACA_site4923]", "gcPBM binding intensity (ln)": "9.31 ± 0.43"}, {"sequence": "ACAAGTATTAATTACACACTCAAAAAGAAAAAACAA [CACACA_site2281]", "gcPBM binding intensity (ln)": "8.53 ± 0.6"}, {"sequence": "ATATATTCTATATATACATGCATATATATTATATGT [TGCATGCA_site185]", "gcPBM binding intensity (ln)": "8.54 ± 0.23"}, {"sequence": "ATGCAACTATATATATATATTATATGTATGAATAAT [XGTACX_negctrl_site434]", "gcPBM binding intensity (ln)": "8.53 ± 0.43"}, {"sequence": "GTTAAATGAAAATATGTACACACTTGAAAATTTTTA [CACACA_site2924]", "gcPBM binding intensity (ln)": "8.6 ± 0.4"}, {"sequence": "TGAATAAATATGCAGCGTACATAATCCTCTTAAAAT [XGTACX_site8462]", "gcPBM binding intensity (ln)": "8.38 ± 0.28"}, {"sequence": "AAAGATTTAATCTATACATGCAAATATATAGAAAAG [TGCATGCA_site373]", "gcPBM binding intensity (ln)": "8.85 ± 0.28"}, {"sequence": "AATAAAAATAGGAAATGTACACATATATATATATAT [XGTACX_site1853]", "gcPBM binding intensity (ln)": "10.2 ± 0.64"}, {"sequence": "TATATATACACACACACATGCATGCCGATATATATA [TGCATGCA_site29]", "gcPBM binding intensity (ln)": "9.48 ± 0.15"}, {"sequence": "AAAAGATATTTGAATATACACACGATTTAAATTTAA [CACACA_site3865]", "gcPBM binding intensity (ln)": "8.44 ± 0.39"}, {"sequence": "GAACAAAATTTTATATGTACATAATATTTATATATA [XGTACX_site3667]", "gcPBM binding intensity (ln)": "8.64 ± 0.29"}, {"sequence": "AGATGCCAAGTATAAAGTACATATCAAAATGTATAT [XGTACX_site456]", "gcPBM binding intensity (ln)": "8.48 ± 0.38"}, {"sequence": "TTATTTTATTTTTATACACACATGTTTTAATGTTCA [CACACA_site249]", "gcPBM binding intensity (ln)": "8.76 ± 0.35"}, {"sequence": "TTTATAATTCCATAATGTACAAATAAAATAAAAAAT [XGTACX_site663]", "gcPBM binding intensity (ln)": "8.74 ± 0.35"}, {"sequence": "AAAACTTTTAAAATTTTGTATTCATTCCTTCAACAA [GTGCAC_negctrl_site697]", "gcPBM binding intensity (ln)": "8.49 ± 0.38"}, {"sequence": "AAAATTAATGTTGGTTGTACAAAAATTAAATATGGT [XGTACX_site66]", "gcPBM binding intensity (ln)": "9.28 ± 0.8"}, {"sequence": "AGGAGGATAGTTCACAGTACCCAGTAACTCTACGAG [XGTACX_site2008]", "gcPBM binding intensity (ln)": "8.31 ± 0.57"}, {"sequence": "GTACAAAGGACTATACATAGAAAAATATATATATAT [XGTACX_negctrl_site164]", "gcPBM binding intensity (ln)": "9.86 ± 0.23"}, {"sequence": "AATACATTTATGAGCTGTACACATTTATTTGAGCTA [XGTACX_site7695]", "gcPBM binding intensity (ln)": "8.51 ± 0.27"}]}]}
